From the supplement of paper PMC10126150
Values marked as one replicate rest on one cluster of the flow cell; about a third of the high ones do not repeat.

System: ATP
Test: switch fluorescence ratio, 500 uM ATP over buffer (Cy3 cluster intensity, sum of 5 cycles each) (fold (ratio)); higher = stronger signal-on switching upon ATP binding; sequences stand for … in TCGTCGGCAGCGTCAGATGTGTATAAGAGACAGTTTTTTTTTTTTTTTTTTTTTTTTT…TC
Conditions: aptamer strand: ATP DNA aptamer (quencher-CACCTGGGGGAGTATTGCGGAGGAAGG + anchor), 100 nM annealed; ATP concentration: 500 uM; one replicate
In short: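 Five buffer/ATP imaging cycles were run on Cy3-labelled switching-strand clusters on a modified Illumina MiSeq flow-cell, with NaOH stripping and re-annealing between cycles. In each cycle, clusters annealed to 100 nM quencher-labelled ATP aptamer were imaged in selection buffer, then after 15 min with 500 uM ATP at 22 °C. Per cluster, the fluorescence ratio is summed target-cycle over summed buffer-cycle Cy3 intensity, averaged per switch-domain sequence. Only clusters within 100-1000 RFU were kept.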
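Also: ATP exposure 15 min at 22 °C before imaging.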

Row | Sequence | switch fluorescence ratio
1 | GCAATCGAAT | 1.08
2 | CCGGAGAGAG | 2.31
3 | ATACAGCGCT | 1.02
4 | CGATGATA | 1.02
5 | TCGGGACCAT | 0.992
6 | GAACGGGCGG | 0.991
7 | GGAAGTTTTC | 1.1
8 | TATCGGTGAA | 0.955
9 | CGTCTCGGGA | 1.05
10 | TGAGGCAGCG | 1.14
11 | GACTCGGAGC | 1.01
12 | AAGTCCTTAT | 0.977
13 | TAAGCGAGCG | 1.23
14 | AATTCCGAAC | 1.19
15 | TAGATTGTGG | 0.992
16 | GGTTGAATTC | 0.989
17 | GATCGTTTAA | 1
18 | GGCGCTTGTC | 1.06
19 | ATTCATGTGG | 0.958
20 | GCTTACGAAA | 1.07
21 | GGAATGGATT | 0.99
22 | ACTTCATCTA | 1.11
23 | CAGTTCTACG | 0.955
24 | CCAGGAGAAG | 1.02
25 | ATTTTTCAAA | 1.02

Row | Sequence | switch fluorescence ratio
26 | GGATGGACGG | 1
27 | ACGACCGTGG | 0.979
28 | GTTAATACGT | 1
29 | AGATTTGAGT | 0.988
30 | CATTTTAATT | 0.975
31 | TCACTGGCAA | 1.77
32 | AGGCTAATAA | 0.982
33 | GAAGGGATCC | 1.04
34 | CAAATATCCA | 1.02
35 | CAGGGACAAA | 1.01
36 | TTGGGGTTCC | 0.926
37 | AACCCCAACC | 1.08
38 | GACCTACCCG | 1.28
39 | CGCCCCCGGG | 2.45
40 | GAAGCGGTTG | 1.02
41 | GGTTGAAGTC | 0.998
42 | TCAGACTAGG | 0.983
43 | TTATGCGCCC | 1.05
44 | GGTTGTAACG | 0.965
45 | GCCCTGCGTG | 1.07
46 | TTTGTTGA | 0.967
47 | ATCTGAAGCC | 1.27
48 | TTAAAACTTG | 1.07
49 | AGATAGAAGA | 0.97
50 | ACGGGAATAT | 1.06

Row | Sequence | switch fluorescence ratio
51 | CCTCGACTTT | 1.06
52 | TAGGGTCCCG | 0.978
53 | GAGATCCGGC | 0.978
54 | TAATTCAGGC | 0.97
55 | GAGCCTCCCT | 1.14
56 | TGTCGATGGG | 0.959
57 | TACTAAAGTG | 1
58 | CATTTGTTAC | 1.03
59 | ACCCCTACTA | 1.23
60 | TCGCACGGCG | 0.994
61 | CAAATTCGTT | 0.992
62 | TAAGGAAAGC | 1.05
63 | CCCAGAGATC | 1.09
64 | CAATAATACT | 1.18
65 | CCACAGATGG | 1.13
66 | GGAGACTCAT | 0.957
67 | TTTAAAGGCG | 1.03
68 | GATGTATTTA | 1.02
69 | CGTGAGAGTA | 1.01
70 | GGGTGTCGTG | 1.03
71 | GGGGGCGACC | 1.03
72 | TCGGGGCCTG | 0.947
73 | TCGTGCCCTG | 0.997
74 | AGGGCGCGTC | 1
75 | TGGCCGGCCG | 0.993

Row | Sequence | switch fluorescence ratio
76 | CCATAGGGTA | 0.999
77 | TAGTGAATTA | 0.995
78 | GGGCTTCCCG | 1.23
79 | GGCCTGTATA | 0.939
80 | AGCAGGATTT | 0.987
81 | TTATGAGTGC | 0.989
82 | CCACGTTCTA | 1.03
83 | GTTGAAGTAA | 1.01
84 | GGCGTCCTAC | 0.998
85 | GGCGCTCTAT | 0.976
86 | CGCGATAGAA | 1.01
87 | ATGGTGCCGC | 0.958
88 | TTACGGCACC | 1.81
89 | CCTGGTCCTG | 0.986
90 | ATTTAGATAT | 1.04
91 | TCGGGGTGAG | 0.986
92 | TCGAGGAGGT | 0.976
93 | GAAAGGTCTT | 1.08
94 | TTTCGATGAG | 1.03
95 | TTCGTGTTGT | 1.04
96 | TTAGCCTTGA | 1.04
97 | TGTCAAAATC | 0.945
98 | AATGACGTTG | 1.01
99 | GGACGCTTCC | 1.46
100 | GGGACCTGGA | 1.04

Row | Sequence | switch fluorescence ratio
101 | CCATAAAAAT | 1.02
102 | TCAAGTCAGG | 1.05
103 | TATAACTTCC | 2.52
104 | TTATAGTGCA | 1
105 | GACAGTTTTT | 0.988
106 | GCTGGAATTT | 0.961
107 | GAACCTCCTG | 1.13
108 | TGATGTCTGC | 0.975
109 | TCGGCCTTTC | 1.45
110 | ACCGCGGTG | 0.988
111 | TTTTCTCTCT | 1
112 | CCAGTATAGC | 1.07
113 | AATGAATTT | 0.971
114 | ACTTCATTCG | 1.67
115 | GAGTCCTCGT | 1.01
116 | CGGGGGAGAT | 0.984
117 | GGTTCTTCCG | 1.14
118 | GATGTCGCAG | 0.967
119 | TCAGTGTCCC | 0.956
120 | TACGGTAGAC | 1.15
121 | GCGCGCCTAT | 1.01
122 | AAAGTAAGGT | 1.03
123 | TAGCATCAGA | 1.02
124 | TCATTGGCTC | 1.05
125 | GGTGTTGC | 1.06

Row | Sequence | switch fluorescence ratio
126 | TTCCTCTCTG | 1.06
127 | GGGCCATTTT | 0.987
128 | CTAATGGCGC | 1.03
129 | GCTAGTTTAT | 1.02
130 | GTCCCACGGA | 0.98
131 | CTGTTTAATA | 0.95
132 | TCTATACGGT | 1.49
133 | TGCTTAATGG | 0.981
134 | GGTAATCATT | 0.975
135 | AGTTCATAGC | 1
136 | TGCTAGGTTC | 1.02
137 | TCCCCGTATG | 1.18
138 | TCGACAATGT | 1.07
139 | CCAATCGTCA | 1.04
140 | CTTGAGTTAT | 0.979
141 | TTATCCTATA | 0.95
142 | TTTGCACCTG | 0.989
143 | GCTCGGCCGA | 0.949
144 | AACCTAGGAT | 0.969
145 | TTAATGCTCG | 1.01
146 | TGGTTGGAGA | 1
147 | TTAGCACCAT | 0.992
148 | ACCTCGCCGA | 1.11
149 | CCCCAAGGTC | 3.86
150 | GTAATGTGGA | 0.989

Row | Sequence | switch fluorescence ratio
151 | TTGATCTGTA | 0.955
152 | CCTGACGGAA | 1.93
153 | AAAAACGGGT | 1.03
154 | AAGAAGGCGC | 1.01
155 | CGTACGGTTA | 1.07
156 | ATTGCACTGT | 1.04
157 | TAGTTGCATG | 1.01
158 | TTGGACTGAA | 1.01
159 | CCAGTTTGGG | 0.978
160 | CTGCGAGGCG | 1.03
161 | CGTGAGCGCC | 0.961
162 | GTCCGTTTGA | 1
163 | TTTATTTCAT | 0.99
164 | GGCTCTGGTC | 1
165 | GCCTAGACTT | 0.994
166 | CGCTAGGACT | 1.14
167 | GTCCACTACG | 1.07
168 | CGCGATACCG | 1.72
169 | TTGACTCGTT | 1.02
170 | TGACTAAGTA | 1.06
171 | AACAGGAGGT | 0.948
172 | GTCAGGTACT | 1.03
173 | CTGGTTTATT | 0.993
174 | CGTAGATTCG | 0.967
175 | ATCATTTGGT | 0.983

Row | Sequence | switch fluorescence ratio
176 | AAGCTACTTG | 1.1
177 | TAGGCCTGAC | 1.26
178 | AGAGTGGTAA | 1.02
179 | TTAAATTCTA | 0.996
180 | TTTCATACCC | 0.996
181 | CACAAAGTGA | 0.972
182 | TTAAGGGAC | 1.12
183 | TGTGATTTG | 0.99
184 | CAAATTTTCG | 0.954
185 | ACGTGGTCTA | 1.01
186 | GAGATCGGAA | 1.01
187 | TGTCTCGCCG | 1.02
188 | GCATAGGTCT | 0.998
189 | GGTCATGGGC | 1.04
190 | GGGGCTGGTC | 0.991
191 | TTTTGATCTC | 1.06
192 | TCCTCGGAGG | 1.01
193 | TCGACTTACC | 1.23
194 | TGACTCCCGT | 1.12
195 | ATCTTCCACA | 1.1
196 | CCGGACGTGG | 1.08
197 | TATATTGATT | 0.968
198 | ACTAAGTTCA | 1
199 | GTCACATGAG | 0.993
200 | ATAGGTGTGC | 1.05
